Laboratory results from PubChem BioAssay AID686978 (National Center for Advancing Translational Sciences (NCATS), 2013).
Hit rate of the full screen: of about 420,000 compounds, about 64,000 (15%) were called active. The shares of active, inactive and inconclusive entries below differ from those in the screen. Calls come from the whole dose curve; as a rule, active = well fitted inhibition curve with a large enough effect; inconclusive = small, poorly fitted or top-dose-only effect; inactive = flat fitted curve, though single readings scatter. No potency is given beside an inconclusive call; the fits are too rough.

Assay: qHTS for Inhibitors of human tyrosyl-DNA phosphodiesterase 1 (TDP1): qHTS in cells in absence of CPT; note: nearly all actives have a fitted effect of over 55% in size
Conditions: DT40 Tdp1-/- hTDP1 cells, no CPT, ATP luminescence, 48 h; activity change, negative = growth inhibition: at 46.2 µM (top of the series) unless noted
Method in brief: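 No-CPT arm: Tdp1-/-;hTDP1 DT40 cells (400/well) plus compounds, incubated ≥48 hr at 37 °C. Readout CellTiter-Glo luminescence.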
% is set by controls: 0 for no effect and ±100 for the full control effect; potency is the fitted concentration of half-maximal effect; tags give direction and shape of the fitted curve.

| SMILES | Potency | activity change, negative = growth inhibition |
| --- | --- | --- |
| CCCc1nnc2n1N=C(c1ccc([N+](=O)[O-])cc1)CS2 | inactive | – |
| CCN(C[C@H]1N[C@@](CC)(C(=O)OC)[C@H]2C(=O)N(Cc3ccccc3)C(=O)[C@@H]12)C(C)=O | inactive | – |
| CC(C)(C)n1ncc2c(=O)n(CC(=O)NCc3ccc(F)cc3)cnc21 | active: 8.2 µM | – |
| N/C(=N\c1nc2ccccc2o1)NC(=O)c1cccc(Cl)c1 | inconclusive [inhibitor, partial curve, poor fit] | – |
| CCOC(=O)c1cc(-c2csc(COc3ccccc3)n2)on1 | inactive | – |
| O=c1[nH]c2cc3c(cc2cc1CN(Cc1nnnn1C1CCCC1)C1CCCC1)OCCO3 | active: 25.9 µM | – |
| O=C(C[C@H]1C[C@H](C(=O)N2CCOCC2)[C@@]2(CCC3CCCC3)c3[nH]c4cc(-c5ccco5)ccc4c3CCN2C1=O)NCC12CC3CC(CC(C3)C1)C2 | inconclusive [inhibitor, single point] | – |
| Cc1ccc(C(=O)NC(=S)c2c(C)cc3ccccn23)cc1 | inconclusive [inhibitor, single point] | – |
| O=c1oc2ccccc2nc1/C=C(\O)c1ccc(Br)cc1 | inconclusive [inhibitor, single point] | – |
| Cc1noc(C)c1C(=O)Nc1nc2ccc(S(C)(=O)=O)cc2s1 | – | inconclusive: -30.8% [inhibitor] |
| C[n+]1c2n(c3ccccc31)N=C(c1cc(C(C)(C)C)c(O)c(C(C)(C)C)c1)CS2 | active: 2.59 µM | – |
| OCC[C@@H]1C[C@H](O)[C@@H](O)[C@@]2(CCc3ccccc3O2)O1 | inactive | – |
| CCOC(=O)c1[nH]c2ccc(OC)cc2c1NC(=O)CCN1CCSCC1 | inactive | – |
| CN(CC(=O)Nc1cccc(F)c1)CC(=O)Nc1ccccc1-c1ccccc1 | inconclusive [inhibitor, single point] | – |
| COc1ccc(OC)c2sc(N3CCN(C(=O)CCS(=O)(=O)c4ccc(F)cc4)CC3)nc12 | active: 20.6 µM | – |
| CC12CCC(=O)N1C(C(=O)Nc1nc3ccc(Cl)cc3s1)CS2 (centres undefined) | inconclusive [inhibitor, single point] | – |
| Cc1cc(Cl)ccc1NC(=O)Cn1nnc2sc(-c3ccccc3)cc2c1=O | inconclusive [inhibitor, single point] | – |
| CC(C)c1ccc(Nc2ncnc3onc(-c4ccc(F)cc4)c23)cc1 | inconclusive [inhibitor, single point] | – |
| Nc1ccc2c(c1)OC1(CCCCC1)O2 | active: 16.4 µM | – |
| CCCCN1CC(O)=C(c2nc3ccccc3[nH]2)C1=N | inconclusive [inhibitor, single point] | – |
| Cc1ccc(-c2cn(-c3ccc(SC(F)F)cc3)c3[n+]2CCC3)cc1 | active: 0.461 µM | – |
| N#Cc1ccc(Oc2nc(C(N)=O)cc(-c3ccccc3)n2)cc1 | – | inconclusive: -33.1% [inhibitor] |

| SMILES | Potency | activity change, negative = growth inhibition |
| --- | --- | --- |
| Cc1cccn2c(=O)c3cc(C(=O)NCC4CCCO4)c(=N)n(C4CCCC4)c3nc12 (centres undefined) | inconclusive [inhibitor, single point] | – |
| O=C(CN1CCN(Cc2ccc(Cl)cc2)CC1)N/N=C/c1ccccc1F | inconclusive [inhibitor, partial curve] | – |
| COc1ccc(NC(=O)c2cc3c(=O)n(C)c4ccccc4c3n2C)cc1OC | inconclusive [inhibitor, single point] | – |
| COCCNc1nc2c(c(=O)n(Cc3cccc(Br)c3)c(=O)n2C)n1C | active: 23.1 µM | – |
| CCCCCCCCN1CC(Cc2cc3ccccc3c3ccccc23)N(c2ccccc2)c2ccccc2C1=O (centres undefined) | inconclusive [inhibitor, partial curve] | – |
| COc1cccc(/C=N/Nc2ccnc(=O)[nH]2)c1O | active: 0.0651 µM | – |
| CN1CCC(=C(c2ccc(Cl)cc2)c2ccccn2)CC1 | – | inconclusive: -35.8% [inhibitor] |
| O=C(CSC(=S)N1CCCC1)N1CCN(S(=O)(=O)c2ccccc2F)CC1 | inactive | – |
| COc1ccc(N(CC(=O)Nc2cc(OC)cc(OC)c2)S(=O)(=O)c2c(C)n[nH]c2C)cc1 | inconclusive [inhibitor, single point] | – |
| O=C(NC1CCCCC1)C(c1ccc(C(F)(F)F)cc1)n1c(=O)c(-c2ccco2)nc2ccccc21 (centres undefined) | inconclusive [inhibitor, full curve, poor fit] | – |
| CCOc1ccc(S(=O)(=O)NCCC(=O)OCC(=O)c2ccc(NC(C)=O)cc2)cc1 | inactive | – |
| O=C(/C=C/c1ccco1)Nc1nc(-c2ccccc2)cs1 | inconclusive [inhibitor, single point] | – |
| Cc1cc2cc(CNC(=O)c3ccc(S(=O)(=O)N4CCCC4)cc3)ccc2n1C | inconclusive [inhibitor, single point] | – |
| CC(=O)N1C[C@H]2CON(C)[C@H]2C[C@H]1c1ccc(-c2cccnc2)cc1 | inactive | – |
| CCOc1cc(/C=C(\C#N)C(=O)Nc2cccc(C(=O)O)c2)ccc1OCc1ccc(Br)cc1 | active: 29.1 µM | – |
| Cc1nc2nc(SCC(=O)NC3CCCCC3)nn2c(C)c1Cc1ccccc1Cl | inconclusive [inhibitor, single point] | – |
| CC(=O)N1Cc2cc(C(=O)NCC(F)(F)F)nc(-c3cccc(-c4cccnc4)c3)c2[C@@H]1CCO | active: 5.8 µM | – |
| C=CCn1c(=O)/c(=C\c2ccsc2)s/c1=C(/C#N)C(=O)NCCN1CCOCC1 | inconclusive [inhibitor, single point] | – |
| CN(C)CCCNc1ncnc2scc(-c3ccccc3)c12 | inconclusive [inhibitor, partial curve, poor fit] | – |
| COc1ccccc1NC(=O)NC(=O)c1ccccc1 | inconclusive [inhibitor, full curve] | – |
| COc1ccccc1CNC(=O)C1CC(=O)N(c2ccc(C)c(C)c2)C1 (centres undefined) | inactive | – |
| Cc1ccc(C)c(NC(=O)/C(C#N)=C/c2cn(CC(=O)NCc3ccco3)c3ccccc23)c1 | inconclusive [inhibitor, single point] | – |
